The results in this text go back to the supplement of paper PMC12645437, “Orthogonal IMiD-Degron Pairs Induce Selective Protein Degradation in Cells” (ACS Chemical Biology, 2025).

The other results are listed elsewhere or left out.
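Also: jurkat cells carrying a lentiviral library of mutant zinc finger degrons fused to EGFP plus mCherry, mCherry+ cells FACS sorted, degron abundance counted by next-generation sequencing.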

In this assay the target is no compound (DMSO). The assay is described as follows: log2 fold change of degron read counts, EGFP-low vs EGFP+ sorted cells; higher = lower degron-EGFP level without compound (poor expression or instability). The note with it: compound: DMSO control; 18 h.
As for FCCPICGRQFTQKGNLLRHIKL, the “log2 fold change of degron read counts” value is -0.239.
The figure for FCCNICGAHFTQKGNLLRHIKL is -0.497; for FFCPICGRTFTQKGNLLRHIKL it is 0.272.
Take FWCEQCGAWFTQKGNLLRHIKL: the “log2 fold change of degron read counts” value is 1.05.
Take FGCNQCGRVFTQKGNLLRHIKL: the “log2 fold change of degron read counts” value is -0.0989.
The value for FGCPVCGAHFTQKGNLLRHIKL was 0.387; that for FLCEVCGADFTQKGNLLRHIKL was -2.54; that for FRCPICGHDFTQKGNLLRHIKL was -0.727.
For LLCPICGFFCTQKGNLLRHIKL, the “log2 fold change of degron read counts” value stood at 2.11.
For the sequence FQCPICGHEFTQKGNLLRHIKL, the “log2 fold change of degron read counts” value was -0.59.
Turning to FFCPICGRWFTQKGNLLRHIKL, the “log2 fold change of degron read counts” value is 1.29.
The figure for FNCEQCGAEFTQKGNLLRHIKL is -2.96.
The figure for FACEQCGACFTQKGNLLRHIKL is -1.73.
The value for FDCDICGAVFTQKGNLLRHIKL was -0.981.
As for FFCPQCGAFFTQKGNLLRHIKL, the “log2 fold change of degron read counts” value worked out at 1.44.
In the case of FRCDVCGAHFTQKGNLLRHIKL, the “log2 fold change of degron read counts” value is -1.71.
The figure for FYCNQCGARFTQKGNLLRHIKL is -0.053.
Take FICEQCGANFTQKGNLLRHIKL: the “log2 fold change of degron read counts” value was -2.35.
Regarding FACNQCGRYFTQKGNLLRHIKL, the “log2 fold change of degron read counts” value was found to be 0.918.
In the case of FRCPVCGAVFTQKGNLLRHIKL, the “log2 fold change of degron read counts” value came out at 0.511.
As for FYCEICGHVFTQKGNLLRHIKL, the “log2 fold change of degron read counts” value worked out at 0.0103.
The value for LKCEICGFFCTQKGNLLRHIKL was 0.669; that for FICEICGALFTQKGNLLRHIKL was -1.06.
The value for LKCNQCGFACTQKGNLLRHIKL was 0.359; that for FGCNICGAEFTQKGNLLRHIKL was -0.876; that for FVCEQCGACFTQKGNLLRHIKL was -2.6.
For the sequence FNCNQCGHGFTQKGNLLRHIKL, the “log2 fold change of degron read counts” value stood at 0.594.
The figure for FYCPICGHDFTQKGNLLRHIKL is -0.177; for FHCDICGAYFTQKGNLLRHIKL it is -0.533; for FHCNQCGALFTQKGNLLRHIKL it is 0.0212.
FDCDICGAYFTQKGNLLRHIKL: the “log2 fold change of degron read counts” value stood at 0.671.
The figure for FLCNQCGHVFTQKGNLLRHIKL is -0.216; for FVCEICGHWFTQKGNLLRHIKL it is -2.68.
As to FICEICGARFTQKGNLLRHIKL, the “log2 fold change of degron read counts” value is -1.68.
With FKCPVCGAWFTQKGNLLRHIKL, the “log2 fold change of degron read counts” value was found to be 0.348.
Consider FHCNQCGAKFTQKGNLLRHIKL, for which the “log2 fold change of degron read counts” value was -0.443.
For FCCEICGHRFTQKGNLLRHIKL, the “log2 fold change of degron read counts” value was -1.93.
The figure for FTCNICGADFTQKGNLLRHIKL is -1.19; for FWCPICGHVFTQKGNLLRHIKL it is 0.979; for FDCDVCGALFTQKGNLLRHIKL it is 0.0243.
The figure for FNCEICGAAFTQKGNLLRHIKL is -2; for FTCEVCGAPFTQKGNLLRHIKL it is -1.81; for FSCEICGRVFTQKGNLLRHIKL it is -1.26.
The figure for FVCPICGHIFTQKGNLLRHIKL is 0.269.
FYCEICGHMFTQKGNLLRHIKL: the “log2 fold change of degron read counts” value was -0.0769.
With FWCPICGRAFTQKGNLLRHIKL, the “log2 fold change of degron read counts” value was -0.269.
Take FVCPVCGARFTQKGNLLRHIKL: the “log2 fold change of degron read counts” value is -0.191.
The figure for FQCNVCGAVFTQKGNLLRHIKL is -1.29.
The value for FECEICGACFTQKGNLLRHIKL was -1.87.
For LGCEICGFKCTQKGNLLRHIKL, the “log2 fold change of degron read counts” value was determined as 0.594.
